# Measured values: PubChem BioAssay (NCATS)
# This list was built around the results that the source calls inconclusive (neither active nor inactive); the mix of calls is not that of the screen. For part of these data: Potencies of inconclusive entries are left out as doubtful fits. Active and inactive are the calls of the source. Calls follow the shape of the dose curve; as a rule, active = well fitted curve in the direction sought with a large enough effect; inconclusive = small, poorly fitted or top-dose-only effect, or another doubt; inactive = no such curve, though single readings can be large; an effect the other way counts as inactive or inconclusive.
# Tests used:
# [1] = biological target: N-terminal Xaa-Pro-Lys N-methyltransferase 1 (Homo sapiens) (UniProt Q9BV86); experiment: Confirmatory qHTS for Inhibitors of N-terminal methyltransferase 1 (NTMT1): MTaseGlo Assay (AID 1645874);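 also: luminescence from SAH made as NTMT1 methylates SPKRIA peptide using SAM; 0% = DMSO control and -100% = no-enzyme control; nearly all actives have a fitted effect of over 65% in size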
# Summary of the method: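 qHTS format: NTMT1 125 nM, SAM 100 uM, peptide SPKRIA 1 uM final; 15 min compound preincubation, 30 min reaction at room temperature. MTase-Glo luminescence.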
# [2] = biological target: Phospholipid hydroperoxide glutathione peroxidase GPX4 (Homo sapiens) (UniProt P36969); experiment: Primary qHTS Assay for Inhibitors of Recombinant Selenoprotein Glutathione Peroxidase 4 (GPX4) (AID 1845192); settings: activity change, negative = inhibition: at 50 µM (top of the series) unless noted; also: potency is read from the fitted curve at half-maximal effect; nearly all actives have a fitted effect of over 65% in size
# Summary of the method: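 NADPH consumption, followed by fluorescence at 340/450 nm between 0 and 15 min, reports GPX4 activity via coupled glutathione reductase (100 nM). Enzyme 200 nM was pre-exposed to compound 30 min; 0.5 mM cumene hydroperoxide and 1 mM GSH served as substrates.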
# [3] = system: Nanoluciferase (engineered Oplophorus gracilirostris luciferase); experiment: Primary Nanoluciferase (NLuc) qHTS assay for identification of artifact compounds. (AID 1845222); also: potency is read from the fitted curve at half-maximal effect
# Summary of the method: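 Luminescence from secreted NLuc (filtered, 1:55-diluted S16 cell medium) read 5 min after Nano-Glo substrate; compounds preincubated 15 min, RT. Hill fits of inhibition normalized to DMSO and no-enzyme.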
# [4] = Primary qHTS for inhibitors of nuclear receptor binding SET domain protein 2 (NSD2) in an RCH-ACV wild type WT cells (2C) (AID 1645877); settings: activity change, negative = cell killing: at 44.9 µM (top of the series) unless noted; also: nearly all actives have a fitted effect of over 70% in size; also: potency is read from the fitted curve at half-maximal effect; as to activity change, negative = cell killing: % is scaled to controls: 0 for no effect and ±100 for the full control effect
# SKOV3 = experiment: Primary qHTS to identify gynecologic anti-cancer compounds using libraries of approved drugs and bioactive compounds (AID 1345084); settings: Gynecologic cancer cell panel viability, ATPlite luminescence, 48 h; series mostly up to 57.5 µM; also: nearly all actives have a fitted effect of over 55% in size; also: potency is read from the fitted curve at half-maximal effect; as to activity change, negative = cytotoxicity: % is scaled to controls: 0 for no effect and ±100 for the full control effect
# Summary of the method: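 Five-concentration response, 48 h; readout is ATP-driven luciferase luminescence.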
# [5] = biological target: Luciferin 4-monooxygenase (Photinus pyralis) (UniProt P08659); experiment: Primary firefly luciferase (FLuc) qHTS assay for identification of artifact compounds. (AID 1845220); also: potency is read from the fitted curve at half-maximal effect; nearly all actives have a fitted effect of over 60% in size
# Summary of the method: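 Compounds sat 15 min at room temperature with 10 uM luciferin and 10 uM ATP (pH 7.6 Tris acetate). Firefly luciferase (10 nM final) was then added, and luminescence was read 5 min later. Data normalized to no-enzyme and DMSO controls were Hill-fitted.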
# [6] = Primary fluorescence-based thiol-reactive (MSTI) qHTS assay for identification of artifact compounds. (AID 1845221); also: potency is read from the fitted curve at half-maximal effect;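 also: thiol-reactive compounds lower the probe fluorescence signal; nearly all actives have a fitted effect of over 65% in size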
# Summary of the method: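 In PBS pH 7.4 with 2% DMSO, each compound met 4 uM MSTI for one hour at ambient temperature, shielded from light, before fluorescence detection.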
# [7] = Primary redox qHTS assay for identification of artifact compounds. (AID 1845223); also: potency is read from the fitted curve at half-maximal effect
# Summary of the method: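 Amplex Red (25 uM) and HRP (250 mU/mL) in HBSS, with compounds for 15 min, then 250 uM DTT for 30 min, room temperature, dark. Fluorescence 525/598 nm read; normalized to DMSO and 10 uM DA3003; Hill fit.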
# [8] = Primary qHTS for inhibitors of nuclear receptor binding SET domain protein 2 (NSD2) in an isogenic RCH-ACV NSD2 p.E1099K mutant (9B) (AID 1645876); settings: activity change, negative = viability loss: at 44.9 µM (top of the series) unless noted; also: nearly all actives have a fitted effect of over 70% in size; as to activity change, negative = viability loss: % is scaled to controls: 0 for no effect and ±100 for the full control effect
# Tags tell the direction and shape of the fitted curve.
# UniProt P36969, sequence (P36969 whole entry, looked up): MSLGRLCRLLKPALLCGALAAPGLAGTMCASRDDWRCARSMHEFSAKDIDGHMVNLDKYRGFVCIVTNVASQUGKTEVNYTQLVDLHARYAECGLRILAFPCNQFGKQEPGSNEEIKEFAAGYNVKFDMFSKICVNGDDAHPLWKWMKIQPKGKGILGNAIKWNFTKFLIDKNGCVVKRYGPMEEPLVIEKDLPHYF
# UniProt Q9BV86, sequence (Q9BV86 whole entry, looked up): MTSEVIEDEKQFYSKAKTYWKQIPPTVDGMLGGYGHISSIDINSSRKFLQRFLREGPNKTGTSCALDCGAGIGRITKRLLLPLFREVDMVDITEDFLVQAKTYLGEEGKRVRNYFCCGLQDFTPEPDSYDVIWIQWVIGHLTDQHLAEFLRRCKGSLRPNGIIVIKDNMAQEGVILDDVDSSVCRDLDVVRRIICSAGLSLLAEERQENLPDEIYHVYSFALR
smiles,measurement,setting,value
O=C(O)c1ccnc2cc(-c3nc4ccccc4n3CCN3CCCCC3)sc12,Potency,[1],inactive
same,Potency,[2],"inconclusive [inhibitor, full curve]"
NCc1c[nH]c(=S)n1C1CCc2c(F)cc(F)cc2C1 (stereo not drawn),Potency,[2],"inconclusive [inhibitor, partial curve, poor fit]"
CC/C=C/CC1=C(CCCCCCCC(=O)O)CCC1=O,Potency,[3],"inconclusive [inhibitor, single point]"
C[C@@H]1O[C@@H](O[C@H]2[C@H](OC(=O)C34CCC5(C)C(=CCC6C7(C)CC(O)C(O[C@@H]8O[C@H](C(=O)O)[C@@H](O)[C@H](O)[C@H]8O)C(C)(C(=O)O)C7CCC65C)C3CC(C)(C)CC4O)O[C@H](C)[C@@H](O)[C@@H]2O)[C@H](O)[C@@H](O[C@@H]2OC[C@](O)(CO)[C@H]2O[C@@H]2O[C@H](CO)[C@@H](O)[C@H](O)[C@H]2O)[C@H]1O (stereo partly drawn),Potency,[4],"inconclusive [inhibitor, single point]"
same,"activity change, negative = cytotoxicity",SKOV3,inactive: 13.1% [at 6.55 µM]
COC(=O)c1cc(OC)cc(OC)c1C(=O)c1c(OC)cc2c(c1O)C1CCC(O)C(C)(O2)O1 (stereo not drawn),Potency,[5],"inconclusive [inhibitor, single point]"
same,Potency,[6],"inconclusive [inhibitor, partial curve]"
same,Potency,[7],"inconclusive [activator, single point]"
same,Potency,SKOV3,"inconclusive [rising, full curve, poor fit]"
CC(=O)OC[C@@]12[C@H](O)C[C@@H](C)[C@]3(C[C@@H](c4ccoc4)OC3=O)[C@H]1C[C@H](O)C[C@]21CO1,Potency,[4],inactive
same,Potency,SKOV3,inactive
CC1=CCC(C(C)(C)O[C@@H]2O[C@H](CO[C@@H]3O[C@@H](C)[C@H](O)[C@@H](O)[C@H]3O)[C@@H](O)[C@H](O)[C@H]2O)CC1 (stereo partly drawn),Potency,[8],inactive
same,Potency,[6],inactive
same,Potency,SKOV3,"inconclusive [rising, single point]"
CC1(C)CCC[C@@]2(C)[C@H]1[C@H](O)C=C1COC(=O)[C@@]12O,Potency,[8],inactive
same,Potency,[6],"inconclusive [inhibitor, partial curve, poor fit]"
same,Potency,SKOV3,"inconclusive [cytotoxic, single point]"
